The campaign covered roughly 52,000 compounds. About 4,300 (8.3%) were called active. Rule as the data show it: active = survival mostly below about 52% (no sharp cut-off); inactive = mostly above about 56%. This is one part of the list.

The experiment has as its system DeltatarO mutant. Briefly: S. aureus survival, RN4220 and DeltatarO strains – OD600, teichoic acid synthesis inhibitors, primary screen (AID 463173). As to conditions: S. aureus RN4220 wild type/DeltatarO growth, OD600, 18 h, hits give low values, screened at 18.75 µg/mL (by protocol).
Take `CCOc1ccc(N2CC(C(=O)NCc3nnnn3-c3ccc(C)c(C)c3)CC2=O)cc1` (configuration not stated): the survival is inactive: 57%.

Take `CCOc1ccc(NS(=O)(=O)c2ccc3[nH]cc(C(=O)NCC4CCCO4)c(=O)c3c2)cc1` (configuration not stated): the survival was inactive: 87%.

For `COC(=O)CN1C(=O)CSc2ccc(S(=O)(=O)Nc3cccc(Cl)c3C)cc21`, the survival was inactive: 92%.

With `Nc1c(-c2nc(-c3ccc(F)cc3)cs2)c2ccccn2c1C(=O)c1ccc2c(c1)OCO2`, the survival is inactive: 89%.

In the case of `CC(=O)Nc1cccc(-c2nc3ccccc3o2)c1`, the survival was inactive: 107%.

On to `Cc1cc(=O)n(CC(=O)N2CCN(c3ccc(F)cc3)CC2)c2c1c(C)nn2C`, for which the survival was inactive: 99%.

`COc1ccc(NCc2cc3ccc(OC)cc3n(CC(=O)Nc3cc(Cl)ccc3C)c2=O)cc1`: the survival is inactive: 78%.

Take `CC(C)CCN(C(=O)Nc1ccc(Cl)c(Cl)c1)C(C)c1cccs1` (configuration not stated): the survival was inactive: 116%.

In the case of `O=c1[nH]c2sc3c(c2c(=O)n1-c1ccccc1)CCCC3`, the survival is inactive: 70%.

Turning to `O=C(Nc1cccnc1)C12CC3CC(CC(C3)C1)C2`, the survival was inactive: 62%.

`CCOC(=O)c1c(S(=O)(=O)NCC(=O)NCc2ccccc2)c(C)n(C)c1C`: the survival is inactive: 80%.

In the case of `CCc1ccc2c(c1)NC(c1ccc(OC)cc1)=NC(c1ccncc1)=N2`, the survival is inactive: 72%.

For the molecule `COc1cc(/C=C/c2nc(C#N)c(N3CCC(C)CC3)o2)cc(OC)c1OC`, the survival is inactive: 57%.

As to `CCOc1ccccc1NC(=O)C(C)N(c1ccccc1)S(C)(=O)=O` (configuration not stated), the survival is inactive: 91%.

Consider `CCCCCC1CC(CC(=O)Nc2nncs2)C(=O)O1` (configuration not stated), for which the survival is inactive: 110%.

As for `COc1ccc(S(=O)(=O)c2cnc(SCC(=O)Nc3cc(F)ccc3C)[nH]c2=O)cc1Cl`, the survival is inactive: 84%.

Turning to `CCC1CCCCN1C(=O)c1sc(-n2nc(C)c(Cc3ccccc3)c2C)nc1C` (configuration not stated), the survival is inactive: 69%.

In the case of `Cc1ccc(Cl)cc1NC(=O)CN1C(=O)C(C)(C)c2cc(S(=O)(=O)N3CCCCC3)ccc21`, the survival is active: 6%.

As for `CC(=O)c1cccc(NC(=O)c2cc3c(s2)-c2c(C)cccc2OC3)c1`, the survival was inactive: 120%.

Take `Cc1cc(NC(=O)c2ccc(NC(=O)C(C)C)cc2)no1`: the survival is active: 72%.

As for `Cc1ccc(NC(=O)C2CCN(S(=O)(=O)c3cc(-c4noc(C)n4)ccc3C)CC2)c(C)c1`, the survival is inactive: 134%.

For `CCCN(CCC)CCCNC(=O)c1cc2c(=O)[nH]c3ccccc3c2n1C`, the survival is inactive: 94%.

With `COc1ccc(C2N3CC4(C)CN2CC(c2ccccc2)(C3)C4=O)cc1OC` (configuration not stated), the survival was inactive: 97%.

With `O=C(NC1CCCC1)C(c1ccc(N2CCOCC2)cc1)N(Cc1ccco1)C(=O)c1ccco1` (configuration not stated), the survival was inactive: 83%.

For the molecule `O=C(CSc1c2c(nc3cc(Cl)ccc13)CCCC2)NCc1ccccc1Cl`, the survival is inactive: 75%.

Regarding `C/C=C/C(=O)Nc1ccc(Cl)c(Cl)c1`, the survival was inactive: 70%.

With `Cc1ccc2c(c1)N(CCCC(=O)NCc1cccc(F)c1)C(=O)CO2`, the survival is inactive: 127%.

With `COc1ccccc1OCC(=O)Nc1c(C(=O)c2ccc(F)cc2)oc2ccccc12`, the survival was inactive: 77%.

On to `CSc1ncc(C(=O)N2CCN(c3cccc(C(F)(F)F)c3)CC2)c(C)n1`, for which the survival was inactive: 69%.

In the case of `COc1ccc(NC(=O)C(NC(=O)/C=C\c2ccc3c(c2)OCO3)c2ccccc2)cc1` (configuration not stated), the survival is inactive: 55%.

With `CCc1ccccc1NC(=O)C1CCCN(c2cnccn2)C1` (configuration not stated), the survival is inactive: 90%.

For `Cc1ccc(NC(=O)CSc2nc(=O)cc(N)n2CCc2ccccc2)cc1`, the survival is inactive: 50%.

`O=C(Nc1cccc(NC(=O)c2ccccc2Cl)c1)c1cccc(Br)c1`: the survival was inactive: 79%.

Regarding `Cc1c(C(=O)Nc2ccc(F)cc2F)sc2nc3n(c(=O)c12)N=C(c1ccccc1)CS3`, the survival is inactive: 77%.

Turning to `Cn1nccc1C(=O)NCc1ccc2c(c1)CCN2C(=O)c1ccc(Cl)cc1`, the survival was inactive: 84%.

Consider `CC(Sc1oc(-c2cccs2)nc1S(=O)(=O)c1ccccc1)c1ccccc1` (configuration not stated), for which the survival was active: 44%.

Take `O=C1c2ccccc2-c2onc3c(NCCO)cc(NC4CCCCC4)c1c23`: the survival was inactive: 74%.

For the molecule `COc1ccc(C(CNC(=O)COc2cc(C)cc(C)c2)N2CCOCC2)cc1` (configuration not stated), the survival is inactive: 65%.

Consider `CCc1ccc(Oc2c(C(F)(F)F)oc3c(CN4CCCC(C)C4)c(O)ccc3c2=O)cc1` (configuration not stated), for which the survival is inactive: 77%.

For the molecule `CCc1ccc(NC(=O)c2nn(-c3ccc(OC)cc3)c(=O)c3c2c2ccccc2n3C)cc1`, the survival is inactive: 76%.

With `COc1ccc(N2CCN(c3csc4ccccc4c3=O)CC2)cc1`, the survival was inactive: 81%.

For the molecule `CCCCOc1ccc(Cn2c(=O)sc3ccccc32)cc1`, the survival was active: -1%.

As for `CC(CNC(=O)CCS(=O)(=O)c1cc2c(cc1Cl)NC(=O)CO2)c1ccccc1` (configuration not stated), the survival was inactive: 79%.

Turning to `CCOC(=O)c1ccccc1NC(=O)CCc1nc(-c2ccc(C)cc2)no1`, the survival was inactive: 58%.

Take `c1ccc(N2CCN(N=C3c4ccccc4-c4ccccc43)CC2)nc1`: the survival is active: 18%.

Regarding `CCOC(=O)c1c(NC(=O)CSc2cn(CCNC(=O)c3ccccc3F)c3ccccc23)sc2c1CCCC2`, the survival is inactive: 89%.

As for `O=C(Cn1c(=O)n(-c2ccc(Cl)cc2)c(=O)c2c3c(sc21)CCC3)c1ccccc1`, the survival was inactive: 78%.

As for `CC(C)(C)OC(=O)N1CCC(c2c(C(=O)N3CCN(C(=O)c4ccco4)CC3)cnn2-c2ccccc2Cl)CC1`, the survival is inactive: 67%.

With `COCCCNC(=O)c1ccc2c(c1)NC(=O)C(C(C)C)N2` (configuration not stated), the survival was inactive: 57%.

As for `CCOC(=O)c1ccc(NC(=O)c2nn(C)c3c2COc2ccccc2-3)cc1`, the survival is inactive: 106%.

With `Cc1ccc(S(=O)(=O)c2nnn3c2nc(NCc2ccccc2Cl)c2sccc23)cc1`, the survival was inactive: 78%.

On to `O=C(/C=C\Nc1ccccn1)c1ccc2c(c1)OCO2`, for which the survival was inactive: 94%.

As to `CC(C)c1ccc(OCc2cc(=O)n3c(-c4ccccc4)csc3n2)cc1`, the survival is inactive: 117%.

Consider `COc1cc(-c2cc(OC)c3c(C)oc(C)c3c(=O)c2)ccc1OC(=O)c1cccc(Cl)c1`, for which the survival was inactive: 103%.

With `Cn1c(SCc2ccccc2F)nc2c([nH]c3ccccc32)c1=O`, the survival was inactive: 97%.

On to `CCc1nn(CCCC(=O)NC(C)c2ccccc2)c(=O)c2cc3occc3n12` (configuration not stated), for which the survival was inactive: 83%.

Take `Cc1ccc(Cn2cc(CCC(=O)NCc3ccc(OC(C)C)cc3)c3ccccc32)cc1`: the survival is inactive: 81%.

(Values after PubChem BioAssay AID463173 (ICCB-Longwood Screening Facility, Harvard Medical School, 2010).)
